Residue numbers refer to the chain shown, from its start. Some of the results follow.
T1: RBFOX1 RRM (Homo sapiens, UniProt Q9NWB1 109-208)
T1 sequence: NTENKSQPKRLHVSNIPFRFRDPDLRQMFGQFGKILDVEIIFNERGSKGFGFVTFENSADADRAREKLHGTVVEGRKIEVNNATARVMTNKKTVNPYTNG

B1: GCUACAA (DNA:RNA)
RNA: GGGAGACCGGAAUUCAGAUUGUCCGCUACAAUUAAAUCCCGUCGUAGCCACCA
DNA 1: CAATCTGAATTCCGGTCTCCC
DNA 2: TGGTGGCTACGACGGGATT
B2: GAGUCGG (DNA:RNA)
RNA: B1 RNA with C26A, U27G, A28U, A30G, A31G
DNA 1: CAATCTGAATTCCGGTCTCCC
DNA 2: TGGTGGCTACGACGGGATT
B3: GUCGAAG (DNA:RNA)
RNA: B1 RNA with C26U, U27C, A28G, C29A, A31G
DNA 1: CAATCTGAATTCCGGTCTCCC
DNA 2: TGGTGGCTACGACGGGATT
B4: GUAUUCA (DNA:RNA)
RNA: B1 RNA with C26U, U27A, A28U, C29U, A30C
DNA 1: CAATCTGAATTCCGGTCTCCC
DNA 2: TGGTGGCTACGACGGGATT
B5: GGAUAUG (DNA:RNA)
RNA: B1 RNA with C26G, U27A, A28U, C29A, A30U, A31G
DNA 1: CAATCTGAATTCCGGTCTCCC
DNA 2: TGGTGGCTACGACGGGATT
B6: AGGUCAC (DNA:RNA)
RNA: B1 RNA with G25A, C26G, U27G, A28U, A31C
DNA 1: CAATCTGAATTCCGGTCTCCC
DNA 2: TGGTGGCTACGACGGGATT
B7: ACUACCG (DNA:RNA)
RNA: B1 RNA with G25A, A30C, A31G
DNA 1: CAATCTGAATTCCGGTCTCCC
DNA 2: TGGTGGCTACGACGGGATT
B8: UGAGCCG (DNA:RNA)
RNA: B1 RNA with G25U, C26G, U27A, A28G, A30C, A31G
DNA 1: CAATCTGAATTCCGGTCTCCC
DNA 2: TGGTGGCTACGACGGGATT
B9: GAUGCCC (DNA:RNA)
RNA: B1 RNA with C26A, A28G, A30C, A31C
DNA 1: CAATCTGAATTCCGGTCTCCC
DNA 2: TGGTGGCTACGACGGGATT
B10: CAAUGCG (DNA:RNA)
RNA: GGGAGACCGGAAUUCAGAUUGUCCCAAUGCGUUAAAUCCCGUCGUAGCCACCA
DNA 1: CAATCTGAATTCCGGTCTCCC
DNA 2: TGGTGGCTACGACGGGATT
B11: GCGUCAC (DNA:RNA)
RNA: B1 RNA with U27G, A28U, A31C
DNA 1: CAATCTGAATTCCGGTCTCCC
DNA 2: TGGTGGCTACGACGGGATT
B12: CAAAGUG (DNA:RNA)
RNA: B10 RNA with U28A, C30U
DNA 1: CAATCTGAATTCCGGTCTCCC
DNA 2: TGGTGGCTACGACGGGATT
B13: AUUACUC (DNA:RNA)
RNA: B1 RNA with G25A, C26U, A30U, A31C
DNA 1: CAATCTGAATTCCGGTCTCCC
DNA 2: TGGTGGCTACGACGGGATT
B14: AUAAUCU (DNA:RNA)
RNA: B10 RNA with C25A, A26U, U28A, G29U, G31U
DNA 1: CAATCTGAATTCCGGTCTCCC
DNA 2: TGGTGGCTACGACGGGATT
B15: UUAUCGC (DNA:RNA)
RNA: B10 RNA with C25U, A26U, G29C, C30G, G31C
DNA 1: CAATCTGAATTCCGGTCTCCC
DNA 2: TGGTGGCTACGACGGGATT
B16: CCGCGGU (DNA:RNA)
RNA: B10 RNA with A26C, A27G, U28C, C30G, G31U
DNA 1: CAATCTGAATTCCGGTCTCCC
DNA 2: TGGTGGCTACGACGGGATT
B17: CGGCACA (DNA:RNA)
RNA: B10 RNA with A26G, A27G, U28C, G29A, G31A
DNA 1: CAATCTGAATTCCGGTCTCCC
DNA 2: TGGTGGCTACGACGGGATT
B18: GGUGGAG (DNA:RNA)
RNA: B1 RNA with C26G, A28G, C29G, A31G
DNA 1: CAATCTGAATTCCGGTCTCCC
DNA 2: TGGTGGCTACGACGGGATT
B19: UAUUCUU (DNA:RNA)
RNA: B10 RNA with C25U, A27U, G29C, C30U, G31U
DNA 1: CAATCTGAATTCCGGTCTCCC
DNA 2: TGGTGGCTACGACGGGATT
B20: UUGCAAU (DNA:RNA)
RNA: B1 RNA with G25U, C26U, U27G, A28C, C29A, A31U
DNA 1: CAATCTGAATTCCGGTCTCCC
DNA 2: TGGTGGCTACGACGGGATT
B21: CACCCAG (DNA:RNA)
RNA: B10 RNA with A27C, U28C, G29C, C30A
DNA 1: CAATCTGAATTCCGGTCTCCC
DNA 2: TGGTGGCTACGACGGGATT
B22: AGUGUAA (DNA:RNA)
RNA: B1 RNA with G25A, C26G, A28G, C29U
DNA 1: CAATCTGAATTCCGGTCTCCC
DNA 2: TGGTGGCTACGACGGGATT
B23: AGCUCAG (DNA:RNA)
RNA: B10 RNA with C25A, A26G, A27C, G29C, C30A
DNA 1: CAATCTGAATTCCGGTCTCCC
DNA 2: TGGTGGCTACGACGGGATT
B24: ACACUUC (DNA:RNA)
RNA: B10 RNA with C25A, A26C, U28C, G29U, C30U, G31C
DNA 1: CAATCTGAATTCCGGTCTCCC
DNA 2: TGGTGGCTACGACGGGATT
B25: GUCGACC (DNA:RNA)
RNA: B10 RNA with C25G, A26U, A27C, U28G, G29A, G31C
DNA 1: CAATCTGAATTCCGGTCTCCC
DNA 2: TGGTGGCTACGACGGGATT
B26: GCGCCCC (DNA:RNA)
RNA: B1 RNA with U27G, A28C, A30C, A31C
DNA 1: CAATCTGAATTCCGGTCTCCC
DNA 2: TGGTGGCTACGACGGGATT
B27: UGCUUAC (DNA:RNA)
RNA: B10 RNA with C25U, A26G, A27C, G29U, C30A, G31C
DNA 1: CAATCTGAATTCCGGTCTCCC
DNA 2: TGGTGGCTACGACGGGATT
B28: AAUAAGU (DNA:RNA)
RNA: B1 RNA with G25A, C26A, C29A, A30G, A31U
DNA 1: CAATCTGAATTCCGGTCTCCC
DNA 2: TGGTGGCTACGACGGGATT
B29: GAUUGGG (DNA:RNA)
RNA: B10 RNA with C25G, A27U, C30G
DNA 1: CAATCTGAATTCCGGTCTCCC
DNA 2: TGGTGGCTACGACGGGATT
B30: CGAGGUG (DNA:RNA)
RNA: B10 RNA with A26G, U28G, C30U
DNA 1: CAATCTGAATTCCGGTCTCCC
DNA 2: TGGTGGCTACGACGGGATT
B31: AGUAAAC (DNA:RNA)
RNA: B1 RNA with G25A, C26G, C29A, A31C
DNA 1: CAATCTGAATTCCGGTCTCCC
DNA 2: TGGTGGCTACGACGGGATT

These binders were tested against T1, RBFOX1 RRM (assay: EMSA; HiTS-Eq, 1 nM pool, 10 min; buffer printed only for the single-RNA assays: 10 mM Tris pH 7.5, 150 mM NaCl, 3.4 mM EDTA, 0.001% NP-40, 30 C). Conditions: tags: His6 N-terminal (pET28a); label: 5' 32P.
Method in brief: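 Purified RbFox RRM, wild type or mutant, was incubated for 10 min in 50 µL with 1 nM of a 5′-radiolabelled RNA pool carrying 7 randomized nucleotides, whose flanks were annealed to DNA oligonucleotides, over a series of increasing protein concentrations. Unbound RNA was resolved on 8% native PAGE, cut out, reverse-transcribed, barcoded by PCR and sequenced on an Illumina HiSeq 2500. Relative association constants were derived from changes in read counts for each RNA species versus the control reaction and normalised to the cognate motif.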

Binder	binding signal
B1	0.0067 KA relative to UGCAUGU
B2	0.0121 KA relative to UGCAUGU
B3	0.0181 KA relative to UGCAUGU
B4	0.00532 KA relative to UGCAUGU
B5	0.0169 KA relative to UGCAUGU
B6	0.0109 KA relative to UGCAUGU
B7	0.00321 KA relative to UGCAUGU
B8	0.0121 KA relative to UGCAUGU
B9	0.0136 KA relative to UGCAUGU
B10	0.00919 KA relative to UGCAUGU
B11	0.00726 KA relative to UGCAUGU
B12	0.00792 KA relative to UGCAUGU
B13	0.000413 KA relative to UGCAUGU
B14	0.000154 KA relative to UGCAUGU
B15	0.0112 KA relative to UGCAUGU
B16	0.0132 KA relative to UGCAUGU

Binder	binding signal
B17	0.0095 KA relative to UGCAUGU
B18	0.0114 KA relative to UGCAUGU
B19	0.0097 KA relative to UGCAUGU
B20	0.0162 KA relative to UGCAUGU
B21	0.00179 KA relative to UGCAUGU
B22	0.00945 KA relative to UGCAUGU
B23	0.0097 KA relative to UGCAUGU
B24	0.00103 KA relative to UGCAUGU
B25	0.0106 KA relative to UGCAUGU
B26	0.00808 KA relative to UGCAUGU
B27	0.0169 KA relative to UGCAUGU
B28	0.0036 KA relative to UGCAUGU
B29	0.0116 KA relative to UGCAUGU
B30	0.0167 KA relative to UGCAUGU
B31	0.00682 KA relative to UGCAUGU

From PMC9911399, “Two distinct binding modes provide the RNA-binding protein RbFox with extraordinary sequence specificity”
